Experimental data taken from article PMC4081100.
The entries are a selection whose mix differs from that of the whole data set. For some assays here: At the low end of the ranking the order means little. Some of the results follow. For some assays here: Construct or isoform of the protein are uncertain.

Key:
Experiment in all cases: universal protein binding microarray (PBM)
Conditions in all cases: transcription factors of Arabidopsis thaliana; high values mean tight binding; most listed sequences are background and not binding sites; double strand, one strand shown
GST-ANAC092(1-176) = biological target: T1, GST-ANAC092(1-176) (UniProt Q9FKA0)
T1 sequence: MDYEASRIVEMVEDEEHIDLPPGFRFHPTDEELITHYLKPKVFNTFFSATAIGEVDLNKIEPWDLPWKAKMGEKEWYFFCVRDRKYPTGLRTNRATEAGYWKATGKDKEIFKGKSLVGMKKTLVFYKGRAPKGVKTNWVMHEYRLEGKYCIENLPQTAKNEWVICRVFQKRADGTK

GST-NTL6(1-168) = GST-NTL6(1-168) (UniProt Q9SCK6)
GST-ANAC019 NAC domain = biological target: T2, GST-ANAC019 NAC domain (UniProt Q9C932)
T2 sequence: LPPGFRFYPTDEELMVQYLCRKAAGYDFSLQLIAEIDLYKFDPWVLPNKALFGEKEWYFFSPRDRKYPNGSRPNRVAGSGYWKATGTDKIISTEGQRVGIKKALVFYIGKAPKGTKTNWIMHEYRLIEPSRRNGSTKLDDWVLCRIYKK

GST-NAP(1-166) = biological target: T3, GST-NAP(1-166) (UniProt O49255)
T3 sequence: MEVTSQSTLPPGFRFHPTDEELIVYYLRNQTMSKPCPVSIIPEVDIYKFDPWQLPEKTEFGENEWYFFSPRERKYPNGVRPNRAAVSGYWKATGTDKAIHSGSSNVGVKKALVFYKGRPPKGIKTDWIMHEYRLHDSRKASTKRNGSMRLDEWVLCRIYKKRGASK

GST-NST2(1-184) = biological target: T4, GST-NST2(1-184) (UniProt Q9M274)
T4 sequence: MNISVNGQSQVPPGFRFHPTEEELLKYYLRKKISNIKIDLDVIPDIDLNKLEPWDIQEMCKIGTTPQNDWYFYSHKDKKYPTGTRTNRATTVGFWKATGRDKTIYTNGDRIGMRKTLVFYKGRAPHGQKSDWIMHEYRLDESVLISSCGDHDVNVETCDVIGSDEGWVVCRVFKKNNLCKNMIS

GST-NTL8 NAC domain = biological target: T5, GST-NTL8 NAC domain (UniProt Q9XIN7)
T5 sequence: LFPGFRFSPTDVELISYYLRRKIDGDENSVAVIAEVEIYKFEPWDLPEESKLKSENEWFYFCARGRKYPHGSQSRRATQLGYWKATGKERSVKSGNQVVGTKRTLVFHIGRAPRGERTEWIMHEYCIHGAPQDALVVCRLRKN

GST-SND1(1-203) = biological target: T6, GST-SND1(1-203) (UniProt Q9LPI7)
T6 sequence: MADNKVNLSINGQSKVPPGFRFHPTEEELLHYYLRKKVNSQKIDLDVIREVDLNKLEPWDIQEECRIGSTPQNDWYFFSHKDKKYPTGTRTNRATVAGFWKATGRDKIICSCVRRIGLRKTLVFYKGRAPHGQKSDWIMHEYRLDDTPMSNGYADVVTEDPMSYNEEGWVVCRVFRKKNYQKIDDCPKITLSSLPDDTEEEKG

GST-VND7 NAC domain = biological target: T7, GST-VND7 NAC domain (UniProt Q9C8W9)
T7 sequence: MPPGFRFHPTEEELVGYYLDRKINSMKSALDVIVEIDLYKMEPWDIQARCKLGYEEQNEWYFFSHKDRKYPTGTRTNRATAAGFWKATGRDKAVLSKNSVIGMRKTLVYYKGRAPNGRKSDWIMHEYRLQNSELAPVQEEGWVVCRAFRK

[1] = biological target: T8, GST-VOZ2 (Arabidopsis thaliana) (UniProt Q9SLB9)
T8 sequence: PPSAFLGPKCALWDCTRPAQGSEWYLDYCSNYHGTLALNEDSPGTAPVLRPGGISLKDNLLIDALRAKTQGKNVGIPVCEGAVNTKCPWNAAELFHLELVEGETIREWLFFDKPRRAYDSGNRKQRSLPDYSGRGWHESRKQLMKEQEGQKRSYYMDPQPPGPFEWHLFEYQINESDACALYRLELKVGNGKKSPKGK

[2] = biological target: T9, GST-ANAC092(1-285) full length (UniProt Q9FKA0)
T9 sequence: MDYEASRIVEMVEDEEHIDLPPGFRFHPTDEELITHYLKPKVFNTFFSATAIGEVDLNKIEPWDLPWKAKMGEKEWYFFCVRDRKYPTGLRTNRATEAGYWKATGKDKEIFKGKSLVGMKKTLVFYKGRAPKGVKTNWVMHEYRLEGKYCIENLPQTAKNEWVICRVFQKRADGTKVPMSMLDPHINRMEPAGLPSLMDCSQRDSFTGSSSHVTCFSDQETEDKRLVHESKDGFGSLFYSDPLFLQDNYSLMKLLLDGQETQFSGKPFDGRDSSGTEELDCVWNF

GST-ANAC055(1-171) = biological target: T10, GST-ANAC055(1-171) (UniProt Q9LDY8)
T10 sequence: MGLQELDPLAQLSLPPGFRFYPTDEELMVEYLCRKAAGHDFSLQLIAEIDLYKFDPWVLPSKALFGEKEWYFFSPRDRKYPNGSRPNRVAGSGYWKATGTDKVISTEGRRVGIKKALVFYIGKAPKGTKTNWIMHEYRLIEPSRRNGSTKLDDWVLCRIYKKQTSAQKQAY

GST-ATAF1 NAC domain = biological target: T11, GST-ATAF1 NAC domain (UniProt Q39013)
T11 sequence: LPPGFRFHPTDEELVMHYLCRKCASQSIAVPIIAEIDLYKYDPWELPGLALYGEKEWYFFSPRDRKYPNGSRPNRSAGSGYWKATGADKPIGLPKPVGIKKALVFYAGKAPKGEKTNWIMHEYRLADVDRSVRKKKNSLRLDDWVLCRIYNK

GST-WRKY1(266-371) = GST-WRKY1(266-371) (UniProt Q9SI37)

Row | Sequence | binding signal (GST-ANAC092(1-176)) | binding signal (GST-NTL6(1-168)) | binding signal (GST-ANAC019 NAC domain) | binding signal (GST-NAP(1-166)) | binding signal (GST-NST2(1-184)) | binding signal (GST-NTL8 NAC domain) | binding signal (GST-SND1(1-203)) | binding signal (GST-VND7 NAC domain) | binding signal [1] | binding signal [2] | binding signal (GST-ANAC055(1-171)) | binding signal (GST-ATAF1 NAC domain) | binding signal (GST-WRKY1(266-371))
1 | AAGGAAAG | 0.261 E-score | 0.398 E-score | 0.104 E-score | -0.0269 E-score | 0.239 E-score | 0.467 E-score | 0.262 E-score | 0.117 E-score | 0.00145 E-score | – | – | – | –
2 | ACGCAAGA | – | 0.116 E-score | – | 0.285 E-score | 0.315 E-score | 0.128 E-score | 0.405 E-score | 0.194 E-score | 0.0219 E-score | – | – | – | –
3 | CGTCAACA | – | – | 0.0912 E-score | 0.116 E-score | – | -0.0783 E-score | 0.181 E-score | 0.0179 E-score | 0.145 E-score | 0.196 E-score | – | – | –
4 | GTGGTCAA | – | -0.0341 E-score | -0.013 E-score | -0.0413 E-score | -0.0905 E-score | -0.0212 E-score | -0.0551 E-score | 0.0105 E-score | 0.0727 E-score | 0.0165 E-score | 0.113 E-score | – | –
5 | ATACGTTA | – | -0.0443 E-score | – | – | – | -0.0674 E-score | 0.433 E-score | – | -0.00046 E-score | – | 0.139 E-score | 0.273 E-score | -0.109 E-score
6 | ACACGACT | – | -0.0632 E-score | – | – | – | 0.0226 E-score | -0.0213 E-score | – | -0.0365 E-score | – | 0.364 E-score | – | 0.312 E-score
7 | GCACGGCA | – | -0.151 E-score | – | – | – | -0.0536 E-score | 0.107 E-score | – | -0.113 E-score | – | – | – | -0.0751 E-score
8 | CTTTACGC | – | 0.00768 E-score | – | – | 0.193 E-score | 0.0449 E-score | 0.408 E-score | – | 0.096 E-score | 0.302 E-score | 0.0208 E-score | 0.0445 E-score | -0.00656 E-score
9 | GCACGTAA | – | 0.0413 E-score | – | – | – | 0.189 E-score | 0.225 E-score | – | 0.0107 E-score | – | 0.433 E-score | – | -0.0362 E-score
10 | ACGGCACC | – | -0.0235 E-score | – | – | – | -0.0363 E-score | 0.237 E-score | – | 0.0254 E-score | – | – | – | -0.17 E-score
11 | GTTGACAA | -0.0951 E-score | 0.00179 E-score | -0.0316 E-score | 0.116 E-score | -0.00464 E-score | -0.0511 E-score | 0.0265 E-score | – | 0.0415 E-score | – | – | – | 0.446 E-score
12 | TAAGAAAA | – | 0.454 E-score | 0.0133 E-score | -0.0758 E-score | 0.235 E-score | – | 0.301 E-score | – | 0.192 E-score | – | 0.129 E-score | – | -0.012 E-score
13 | CTAAGTAA | – | 0.49 E-score | – | – | – | 0.216 E-score | 0.394 E-score | – | 0.0376 E-score | – | – | – | 0.0382 E-score
14 | AATGTCAA | -0.206 E-score | -0.0779 E-score | -0.123 E-score | 0.13 E-score | 0.0715 E-score | -0.0377 E-score | -0.133 E-score | – | 0.0651 E-score | -0.0466 E-score | – | – | 0.404 E-score
15 | ACGTCACT | 0.383 E-score | 0.0658 E-score | 0.365 E-score | 0.354 E-score | – | -0.0642 E-score | 0.314 E-score | – | 0.0258 E-score | – | – | – | 0.0284 E-score
16 | AGAGTCAA | -0.00378 E-score | 0.0479 E-score | – | 0.0194 E-score | – | -0.0389 E-score | 0.0237 E-score | – | -0.131 E-score | -0.121 E-score | 0.0194 E-score | 0.0426 E-score | 0.48 E-score
17 | TACAGTCA | 0.0408 E-score | 0.00997 E-score | 0.109 E-score | 0.0375 E-score | 0.0264 E-score | – | 0.0402 E-score | – | 0.0539 E-score | 0.131 E-score | – | 0.107 E-score | 0.404 E-score
